Laboratory results published in PubChem BioAssay AID504466 (National Center for Advancing Translational Sciences (NCATS), 2011).
Among all 330,000 compounds or so, about 4,200 (1.3%) were called active. Inconclusive results, whose numbers are uncertain, are shown with a selection of clear calls. Calls follow the shape of the dose curve; as a rule, active = well fitted activation curve with a large enough effect; inconclusive = small, poorly fitted or top-dose-only effect; inactive = no such curve, though single readings can be large or run the other way. Potencies beside an inconclusive call are fits to weak or partial responses and may not hold up.

Assay: qHTS screen for small molecules that induce genotoxicity in human embryonic kidney (HEK293T) cells expressing luciferase-tagged ELG1; also: nearly all actives have a fitted effect of over 60% in size
Settings: HEK293T ELG1-luciferase reporter, luminescence, 16 h; series mostly up to 46 µM
Method in brief: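 Luminescence read-out: rising ELG1-luciferase signal, reflecting elevated ELG1 protein under genetic stress, flags genotoxic compounds. Cells were treated for 16 hr at 37 °C before ONE-Glo detection.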
Potency is read from the fitted curve at half-maximal effect; tags tell the direction and shape of the fitted curve.

Structure (SMILES)	Potency
O=C(N/N=C/c1ccc([N+](=O)[O-])cc1)c1cccs1	inconclusive: 20.6 µM [activator, partial curve]
C/C(=N\Nc1nccnc1Cl)c1ccc(O)c(C)c1	inconclusive: 14.6 µM [activator, partial curve]
Cc1ccc(NC(=O)CSc2nnc(-c3cccs3)o2)cc1S(=O)(=O)N(C)C	inconclusive: 23.1 µM [activator, single point]
Cc1cccc(NC(=O)COc2ccccc2)c1	inconclusive: 18.4 µM [activator, partial curve, poor fit]
O/N=C/c1cn(-c2ccc(Cl)cc2)nn1	inconclusive: 23.1 µM [activator, partial curve, poor fit]
O=C(Cn1cnc([N+](=O)[O-])n1)N/N=C/c1cc(Cl)ccc1O	inconclusive: 16.4 µM [activator, partial curve, poor fit]
O=Cc1ccc(N2CCCCCC2)cc1	inconclusive: 20.6 µM [activator, partial curve, poor fit]
COc1ccc(/C=C2\N=C3CCCCCN3C2=O)cc1	inconclusive: 18.3 µM [activator, single point]
COCC(C)NC(=O)c1cc(-c2ccc(O)cc2)on1 (centres undefined)	inconclusive: 20.6 µM [activator, single point]
Cc1cc(NCCCn2ccnc2)n2nc(C)c(-c3ccc(Cl)cc3)c2n1	inactive
CCOc1cc(/C=C/c2nc3ccccc3c(=O)[nH]2)ccc1O	inconclusive: 9.2 µM [activator, partial curve, poor fit]
O=C1c2ccccc2NC(c2ccccn2)N1c1ccccc1F (centres undefined)	inactive
Cc1ccc(-c2nc(C#N)c(NCCc3ccccn3)o2)cc1	inconclusive: 6.51 µM [activator, partial curve]
COc1ccc(C(=O)Nc2ccc3c(c2)C(=O)NC3=O)cc1	inconclusive: 25.9 µM [activator, single point]
O=C(OCc1nnc(-c2ccccc2)o1)c1ccc2ccccc2n1	inconclusive: 14.6 µM [activator, partial curve, poor fit]
CCOCCCNCc1ccc(OCc2ccccc2C)c(OC)c1	inactive
CCOC(=O)c1[nH]c2ccc(F)cc2c1NC(=O)Nc1ccccc1OC	inconclusive: 20.6 µM [activator, partial curve, poor fit]
COc1ccc(-c2cn3cc([N+](=O)[O-])ccc3n2)cc1OC	inconclusive: 11.6 µM [activator, partial curve, poor fit]
O=C(N/N=C/c1ccncc1)c1cc2ccccc2cc1O	inconclusive: 20.6 µM [activator, partial curve, poor fit]
Cc1ccc(C(CC(=O)c2ccco2)SCCO)cc1 (centres undefined)	inconclusive: 29.1 µM [activator, single point]
CCN(CC)C(=O)[C@H]1C[C@H](CC(=O)NCCCOC)C(=O)N2CCc3c([nH]c4cc(CCC(=O)N(C)C)ccc34)[C@]12C	inactive
CC(C)NS(=O)(=O)c1ccc(NC(=O)C(C)OC(=O)CCC2CCCC2)cc1 (centres undefined)	inactive

Structure (SMILES)	Potency
O=C(O)c1cccc(Nc2ncnc3c2cnn3-c2ccccc2)c1	inconclusive: 4.11 µM [activator, single point]
Cc1ccc(NC(=O)N2CCCC2C(=O)Nc2ccc3c(c2)OCCO3)cc1 (centres undefined)	inconclusive: 29.1 µM [activator, single point]
CC(=O)Nc1ccccc1C(=O)C(=O)Nc1ccc(C)c(C)c1	inconclusive: 13 µM [activator, partial curve]
O=C(CC1NCCNC1=O)Nc1ccc(Oc2ccccc2)cc1 (centres undefined)	inconclusive: 12.6 µM [activator, partial curve, poor fit]
CCCCn1c(N)c(N(CC(C)C)C(=O)c2cccc(OCc3ccccc3)c2)c(=O)[nH]c1=O	inactive
CC(=O)NS(=O)(=O)c1ccc(NC(=O)CC23CC4CC(CC(Br)(C4)C2)C3)cc1	inactive
Cn1c(SCC(=O)NCC2CCCO2)ncc(C(=O)Nc2ccc(F)cc2)c1=O (centres undefined)	inconclusive: 25.9 µM [activator, single point]
CCOCC(=O)Nc1ccc(Br)c(C)c1	inconclusive: 14.6 µM [activator, partial curve, poor fit]
c1coc(CNc2nc3sc4c(c3c3ncnn23)CCCC4)c1	inconclusive: 25.9 µM [activator, partial curve, poor fit]
Clc1ccc(-c2nnc(-c3ccccc3)c(-c3ccccc3)n2)cc1	inactive
CCOC(=O)C1(Cc2cccc(OC)c2)CCCN(C(=O)c2cc(C)on2)C1 (centres undefined)	inconclusive: 6.51 µM [activator, single point]
Cc1ccc(Nc2nc(=O)c3cccnc3s2)cc1	inconclusive: 20.6 µM [activator, partial curve]
Cc1ccc(C(=O)Nc2cc(C)c(OCC(=O)N3CCOCC3)c(C)c2)cc1	inconclusive: 3.16 µM [activator, partial curve, poor fit]
Cn1c(=O)n(C)c2cc(C(=O)Nc3ccc4c(c3)OCO4)ccc21	active: 8.2 µM
CNC(=O)c1c(NC(=O)c2nc3ccccc3s2)sc2c1CCC2	active: 4.61 µM
O=C(c1cccs1)N(C(=O)c1cccs1)c1ccccn1	inconclusive: 20.6 µM [activator, single point]
CCOC(=O)CN1C(=O)CN(c2ccc(C)cc2)C1=O	inconclusive: 25.9 µM [activator, partial curve, poor fit]
Cc1ccc(C)c(N=Nc2ccc(O)c3ncccc23)c1	inconclusive: 23.1 µM [activator, single point]
CC(=O)Nc1ncc(N=Nc2cccc(C(F)(F)F)c2)s1	inactive
COc1ccc(OCc2csc(N)n2)cc1	inconclusive: 29.1 µM [activator, partial curve, poor fit]
COc1cccc(CNC(=O)CN(c2cc(C)cc(C)c2)S(=O)(=O)c2c(C)noc2C)c1	inactive
COc1ccc(-n2nc3c(N4CCC(C(=O)NCCc5ccccc5C)CC4)nnc(C)c3c2C)cc1	inconclusive: 29.1 µM [activator, single point]
